Experimental data published in a collection of fitness landscapes (doi:10.1126/science.1257360).
The other results are listed elsewhere or left out.

B1: PhoQ; a variant is named by its letters at X, in order, P23837 (parent)
chain: MKKLLRLFFPLSLRVRFLLATAAVVLVLSLAYGMVALIGYSVSFDKTTFRLLRGESNLFYTLAKWENNKLHVELPENIDKQSPTMTLIYDENGQLLWAQRDVPWLMKMIQPDWLKSNGFHEIEADVNDTSLLLSGDHSIQQQLQEVREDDDDAEMTHSVAVNVYPATSRMPKLTIVVVDTIPVELKSSYMVWSWFIYVLSANLLLVIPLLWVAAWWSLRPIEALAKEVRELEEHNRELLNPATTRELTSLVRNLNRLLKSERERYDKYRTTLTDLTHSLKTPLXXLQXXLRSLRSEKMSVSDAEPVMLEQISRISQQIGYYLHRASMRGGTLLSRELHPVAPLLDNLTSALNKVYQRKGVNISLDISPEISFVGEQNDFVEVMGNVLDNACKYCLEFVEISARQTDEHLYIVVEDDGPGIPLSKREVIFDRGQRVDTLRPGQGVGLAVAREITEQYEGKIVAGESMLGGARMEVIFGRQHSAPKDE

Variants of: B1
Assay: enrichment ratio after two sorts for PhoP signalling (ratio (wild type AVST 3.29)); higher = more functional
Settings: with PhoP (E. coli)

Variant | enrichment ratio
WEAK | ≤ 0.25
GGYM | ≤ 0.25
FETL | 0.987
GGYT | ≤ 0.25
LCLY | ≤ 0.25
FAVW | ≤ 0.25
PLDF | ≤ 0.25
SDNV | ≤ 0.25
PIWF | ≤ 0.25
GDPW | ≤ 0.25
QIVY | ≤ 0.25
DATF | ≤ 0.25
PYSE | ≤ 0.25
WDII | ≤ 0.25
YEPN | ≤ 0.25
DELI | ≤ 0.25
DSCN | ≤ 0.25
RDNF | ≤ 0.25
FEAN | ≤ 0.25
PSDR | ≤ 0.25
PDEP | ≤ 0.25
PPST | ≤ 0.25
AFGA | ≤ 0.25
WYFT | ≤ 0.25

Variant | enrichment ratio
WGRG | ≤ 0.25
KNNF | ≤ 0.25
HNNA | ≤ 0.25
TDRV | ≤ 0.25
PFYV | ≤ 0.25
TSNH | 9.11
MKYV | ≤ 0.25
MRKF | ≤ 0.25
QSGN | 1.27
PPWC | ≤ 0.25
HIQV | ≤ 0.25
EDHK | ≤ 0.25
SCTM | 17.9
GQDI | ≤ 0.25
ELKR | ≤ 0.25
MHIP | ≤ 0.25
YYRI | ≤ 0.25
FLIQ | ≤ 0.25
AVPS | ≤ 0.25
QEKC | ≤ 0.25
NPVI | ≤ 0.25
DEWF | ≤ 0.25
WQTM | ≤ 0.25
RGEQ | ≤ 0.25

Variant | enrichment ratio
SCGD | ≤ 0.25
DFGA | ≤ 0.25
YGPF | ≤ 0.25
LRFA | ≤ 0.25
HNES | ≤ 0.25
RTGS | ≤ 0.25
RCFD | ≤ 0.25
SDYA | ≤ 0.25
RRYQ | ≤ 0.25
YTWF | ≤ 0.25
MIFL | 2.53
NWDH | ≤ 0.25
IFQC | ≤ 0.25
ICLK | ≤ 0.25
TGYM | 26.5
IPSY | ≤ 0.25
WKMF | ≤ 0.25
HPGC | ≤ 0.25
SPWT | ≤ 0.25
MSPT | ≤ 0.25
WIPC | ≤ 0.25
WAGW | ≤ 0.25
EPPM | ≤ 0.25
WREG | ≤ 0.25

Variant | enrichment ratio
WIFD | ≤ 0.25
IMFF | ≤ 0.25
RMQY | ≤ 0.25
ADLK | ≤ 0.25
KFHH | ≤ 0.25
YEWN | 0.272
WCYK | ≤ 0.25
YPSF | ≤ 0.25
KGSC | ≤ 0.25
KLGH | ≤ 0.25
WIWD | ≤ 0.25
DKLP | ≤ 0.25
RYHG | ≤ 0.25
HYWY | ≤ 0.25
LYHQ | ≤ 0.25
IVRI | ≤ 0.25
TTCQ | 18.9
QAHS | ≤ 0.25
GLVW | ≤ 0.25
ATGS | 5.38
FMHS | ≤ 0.25
GISS | 13.5
AVVP | ≤ 0.25
RRFS | ≤ 0.25

Variant | enrichment ratio
IPFT | ≤ 0.25
MNNP | ≤ 0.25
LFDP | ≤ 0.25
LTGQ | ≤ 0.25
IFRL | ≤ 0.25
EVDI | ≤ 0.25
MRMS | ≤ 0.25
VILS | ≤ 0.25
NILQ | ≤ 0.25
TRNE | ≤ 0.25
RKSL | ≤ 0.25
QGRL | ≤ 0.25
VVHS | ≤ 0.25
MQCS | 1.74
WVMD | ≤ 0.25
LQEE | ≤ 0.25
VFIV | ≤ 0.25
PYKF | ≤ 0.25
YHCY | ≤ 0.25
SCIQ | 2.92
SNSY | 12.8
DNKF | ≤ 0.25
GFEH | ≤ 0.25
DIHD | ≤ 0.25

Variant | enrichment ratio
FIKS | ≤ 0.25
FHYC | ≤ 0.25
FDWS | ≤ 0.25
GDVV | 6.77
WDMV | ≤ 0.25
WTIM | ≤ 0.25
TNFW | ≤ 0.25
ALSR | 0.524
YICA | ≤ 0.25
VQQT | ≤ 0.25
WCRY | ≤ 0.25
DMTK | ≤ 0.25
ASKT | ≤ 0.25
FDQD | ≤ 0.25
FEDA | ≤ 0.25
TYML | 0.784
WPMY | ≤ 0.25
TNEH | ≤ 0.25
HFCA | ≤ 0.25
HHAS | ≤ 0.25
RKGE | ≤ 0.25
ASMM | 41.3
VHLP | ≤ 0.25
AWYI | ≤ 0.25

Variant | enrichment ratio
AENK | ≤ 0.25
GSQT | ≤ 0.25
IVVP | ≤ 0.25
VPYK | ≤ 0.25
LWGV | ≤ 0.25
SQLP | ≤ 0.25
RFTP | ≤ 0.25
FYVM | ≤ 0.25
YFDN | ≤ 0.25
SFNW | ≤ 0.25
SHPR | ≤ 0.25
FVQA | ≤ 0.25
IPIY | ≤ 0.25
LINA | ≤ 0.25
ITEL | ≤ 0.25
SLAC | 2.46
LPMY | 1.78
KIWM | ≤ 0.25
VNHF | ≤ 0.25
VIFW | ≤ 0.25
VTDI | ≤ 0.25
QTIT | ≤ 0.25
GSVQ | 6.76
SREK | ≤ 0.25

Variant | enrichment ratio
LGNC | ≤ 0.25
VMYD | ≤ 0.25
GQFD | ≤ 0.25
FEYR | ≤ 0.25
YHSG | ≤ 0.25
WYQP | ≤ 0.25
IDAE | ≤ 0.25
YSLH | 5.18
ETKS | ≤ 0.25
KQSV | ≤ 0.25
FARC | ≤ 0.25
IYNE | ≤ 0.25
YSIW | ≤ 0.25
PRVR | ≤ 0.25
KPND | ≤ 0.25
SSFW | ≤ 0.25
SFTD | ≤ 0.25
RALL | ≤ 0.25
IVPA | ≤ 0.25
KTMM | ≤ 0.25
ITYH | ≤ 0.25
SAFR | ≤ 0.25
NNWW | ≤ 0.25
ITRC | ≤ 0.25

Variant | enrichment ratio
YTKE | ≤ 0.25
LCST | ≤ 0.25
RTLQ | ≤ 0.25
KFLP | ≤ 0.25
TQLC | 13.1
YKHW | ≤ 0.25
YRIH | ≤ 0.25
QRNL | ≤ 0.25
GFHE | ≤ 0.25
VGPR | ≤ 0.25
SFTC | 0.693
IYNY | ≤ 0.25
PMHY | ≤ 0.25
MDNK | ≤ 0.25
ESQM | ≤ 0.25
TAFG | ≤ 0.25
AKQM | ≤ 0.25
FESD | ≤ 0.25
WSTP | ≤ 0.25
TVCV | 2.24
GKNV | ≤ 0.25
HADP | ≤ 0.25
DGPP | ≤ 0.25
WACK | ≤ 0.25

Variant | enrichment ratio
HIWV | ≤ 0.25
LVMQ | ≤ 0.25
SPLC | ≤ 0.25
EMVA | ≤ 0.25
SIKR | ≤ 0.25
NQCT | ≤ 0.25
FAYW | ≤ 0.25
RWDS | ≤ 0.25
FVIY | ≤ 0.25
HWGT | ≤ 0.25
YYTY | ≤ 0.25
QISF | 1.79
VMEM | ≤ 0.25
THQK | ≤ 0.25
MECR | ≤ 0.25
YQPQ | ≤ 0.25
IGDW | ≤ 0.25
VYKF | ≤ 0.25
GAPK | ≤ 0.25
GMQH | ≤ 0.25
TEVI | 12.8
GPHV | ≤ 0.25
GWAR | ≤ 0.25
ILQR | ≤ 0.25

Variant | enrichment ratio
RTCL | ≤ 0.25
FDPL | ≤ 0.25
MKIK | ≤ 0.25
RVVQ | ≤ 0.25
MVNK | ≤ 0.25
DPCQ | ≤ 0.25
VLCI | ≤ 0.25
SERQ | ≤ 0.25
HYMH | ≤ 0.25
MCVS | ≤ 0.25
PAYC | ≤ 0.25
IHLH | ≤ 0.25
TTSW | 1.4
TKDA | ≤ 0.25
ANGR | ≤ 0.25
YCSG | 0.266
PMCP | ≤ 0.25
QDFH | ≤ 0.25
KGPV | ≤ 0.25
ITIT | ≤ 0.25
VKPI | ≤ 0.25
FSGS | ≤ 0.25
RQMW | ≤ 0.25
QCQH | ≤ 0.25

Variant | enrichment ratio
WFLV | ≤ 0.25
IQPD | ≤ 0.25
NHSC | ≤ 0.25
MPQM | ≤ 0.25
PISV | ≤ 0.25
FWGF | ≤ 0.25
AYCG | 1.8
RFYQ | ≤ 0.25
MLQL | ≤ 0.25
SLSA | 2.05
WRGV | ≤ 0.25
KSPN | ≤ 0.25
YRAL | ≤ 0.25
WPFM | ≤ 0.25
QQMC | ≤ 0.25
KIYS | ≤ 0.25
PCKS | ≤ 0.25
WISR | ≤ 0.25
WNLF | ≤ 0.25
VPCY | ≤ 0.25
FFTG | ≤ 0.25
IRDP | ≤ 0.25
IMAE | ≤ 0.25
ADFR | ≤ 0.25

Variant | enrichment ratio
KDDP | ≤ 0.25
RTIQ | ≤ 0.25
TAYV | 4.62
LCIT | ≤ 0.25
WMAS | ≤ 0.25
QGER | ≤ 0.25
VPGT | ≤ 0.25
GKEH | ≤ 0.25
WAPN | ≤ 0.25
RQQP | ≤ 0.25
PTPF | 0.27
WNVP | ≤ 0.25
EYTC | ≤ 0.25
EYQV | ≤ 0.25
WRII | ≤ 0.25
LYEW | ≤ 0.25
HETN | ≤ 0.25
WNSR | ≤ 0.25
